Measurements from paper PMC9399069, “Imaging PARP with [^18F]rucaparib in pancreatic cancer models” (European Journal of Nuclear Medicine and Molecular Imaging, 2022).
Values joined by “and” are separate entries in the source; they are usually repeats but may differ in a detail not shown here. Identical values can stand only once. The source gives many values for each of these; only a part stands here.

Test system: PSN1 xenografts
Assay: Ex vivo biodistribution of [18F]rucaparib in PSN1 tumour-bearing mice
Design: species or system Balb/c nu/nu mice
Experimental: Female Balb/c nu/nu (OlaHsd-Foxn1^nu) mice, aged 4–6 weeks, were purchased from Envigo (UK). Animals were housed in IVC cages, up to 6 per cage, in an artificial day–night cycle facility. Food and water were provided ad libitum.
PSN1 cells were harvested using trypsin, washed twice with PBS and reconstituted in PBS:Matrigel® Matrix High Concentration (1:1). Cell suspensions (PSN1: 2 × 10^6 cells/ 100 μL) were injected subcutaneously in the lower right flank.
Animals were administered [^18F]rucaparib (0.87–11.38 MBq in 100 μL of PBS, Am = 1.5–30.9 GBq/μmol) by intravenous injection via the lateral tail vein. To evaluate the selectivity of tumour uptake, an excess of unlabelled rucaparib or olaparib (0.5 mg) was co-administered as a blocking agent in some animals. Dynamic PET images (1 h) were acquired using a MILabs VECTor^4 camera, equipped with an ultra-high resolution rat/mouse collimator (1.8 mm), followed by a cone-beam CT scan (55 kV, 0.19 mA) for anatomical reference and attenuation correction. Animal was anesthetised by 4% isoflurane gas (0.5 L/min O2) and maintained at 2.5% at 37 °C throughout the duration of image acquisition. PET images were reconstructed using U-SPECT-Rec3.22 software (MILabs, Utrecht, The Netherlands), applying a pixel-based algorithm, ordered subset expectation maximisation (OSEM) with 6 subsets, 4 iterations and 0.8 mm voxel size for fluorine-18 (energy window settings 477.9–584.1 keV). Reconstructed PET and CT images were viewed and analysed using PMOD v.3.37 (PMOD Technologies, Zurich, Switzerland).
Either 1 h or 2 h after radiolabelled compound injection, animals were euthanised. Selected organs, tissues and blood were removed, and the percentage of the injected dose per gram of tissue (%ID/g) was determined, using a HIDEX automated gamma counter.

[1] = 1 h post-injection, i.v., individual animals (n=3)
[2] = 2 h after i.v. injection, non-treated (no blocking agent), individual animals (n=3)
[3] = 2 h after i.v. injection, olaparib-blocked (co-injection of olaparib 0.5 mg), individual animals (n=3)
[4] = 2 h after i.v. injection, rucaparib-blocked (co-injection of rucaparib 0.5 mg), individual animals (n=3)
[5] = 2 h post-injection, i.v., individual animals (n=6)

CNCc1ccc(-c2[nH]c3cc([18F])cc4c3c2CCNC4=O)cc1 [[^18F]rucaparib]
Ex vivo biodistribution, Liver [1]: 4.24 %ID/g and 22.33 %ID/g
Ex vivo biodistribution, Spleen [1]: 32.86 %ID/g and 41.87 %ID/g and 47.79 %ID/g
Ex vivo biodistribution, Stomach [1]: 9.10 %ID/g and 6.86 %ID/g and 7.46 %ID/g
Ex vivo biodistribution, Blood [2]: 0.92 %ID/g and 0.49 %ID/g and 0.48 %ID/g
Ex vivo biodistribution, Bone [2]: 3.49 %ID/g and 2.71 %ID/g and 2.38 %ID/g
Ex vivo biodistribution, Brain [2]: 0.09 %ID/g and 0.06 %ID/g (2×)
Ex vivo biodistribution, Fat [2]: 1.32 %ID/g and 0.74 %ID/g and 0.84 %ID/g
Ex vivo biodistribution, Heart [2]: 2.44 %ID/g and 2.15 %ID/g and 1.73 %ID/g
Ex vivo biodistribution, Kidney [2]: 7.28 %ID/g and 6.56 %ID/g and 5.54 %ID/g
Ex vivo biodistribution, Large intestine [2]: 23.81 %ID/g and 19.26 %ID/g and 15.83 %ID/g
Ex vivo biodistribution, Liver [2]: 12.22 %ID/g and 8.90 %ID/g and 10.25 %ID/g
Ex vivo biodistribution, Lung [2]: 8.77 %ID/g and 6.24 %ID/g and 4.58 %ID/g
Ex vivo biodistribution, Muscle [2]: 2.51 %ID/g and 1.58 %ID/g and 1.90 %ID/g
Ex vivo biodistribution, Pancreas [2]: 13.99 %ID/g and 9.45 %ID/g and 9.78 %ID/g
Ex vivo biodistribution, Small intestine [2]: 16.44 %ID/g and 9.50 %ID/g and 19.42 %ID/g
Ex vivo biodistribution, Spleen [2]: 32.75 %ID/g and 20.87 %ID/g and 15.30 %ID/g
Ex vivo biodistribution, Stomach [2]: 4.66 %ID/g and 5.94 %ID/g and 7.68 %ID/g
Ex vivo biodistribution, Tumour [2]: 2.58 %ID/g and 2.10 %ID/g and 1.74 %ID/g
Ex vivo biodistribution, Blood [3]: 0.62 %ID/g and 0.49 %ID/g and 0.38 %ID/g
Ex vivo biodistribution, Bone [3]: 1.34 %ID/g and 1.17 %ID/g and 1.13 %ID/g
Ex vivo biodistribution, Brain [3]: 0.06 %ID/g (2×) and 0.04 %ID/g
Ex vivo biodistribution, Fat [3]: 0.73 %ID/g and 0.74 %ID/g and 0.75 %ID/g
Ex vivo biodistribution, Heart [3]: 1.07 %ID/g and 0.82 %ID/g and 0.83 %ID/g
Ex vivo biodistribution, Kidney [3]: 5.09 %ID/g and 3.73 %ID/g and 3.29 %ID/g
Ex vivo biodistribution, Large intestine [3]: 33.55 %ID/g and 35.89 %ID/g and 30.25 %ID/g
Ex vivo biodistribution, Liver [3]: 13.15 %ID/g and 9.74 %ID/g and 9.86 %ID/g
Ex vivo biodistribution, Lung [3]: 5.83 %ID/g and 5.49 %ID/g and 6.59 %ID/g
Ex vivo biodistribution, Muscle [3]: 1.19 %ID/g and 1.07 %ID/g and 1.10 %ID/g
Ex vivo biodistribution, Pancreas [3]: 4.67 %ID/g and 4.17 %ID/g and 4.43 %ID/g
Ex vivo biodistribution, Small intestine [3]: 8.33 %ID/g and 9.66 %ID/g and 6.32 %ID/g
Ex vivo biodistribution, Spleen [3]: 3.05 %ID/g and 3.03 %ID/g and 2.63 %ID/g
Ex vivo biodistribution, Stomach [3]: 12.09 %ID/g and 9.73 %ID/g and 6.47 %ID/g
Ex vivo biodistribution, Tumour [3]: 2.83 %ID/g and 1.36 %ID/g and 1.23 %ID/g
Ex vivo biodistribution, Blood [4]: 0.04 %ID/g and 0.29 %ID/g and 0.36 %ID/g
Ex vivo biodistribution, Bone [4]: 0.10 %ID/g and 1.21 %ID/g and 0.90 %ID/g
Ex vivo biodistribution, Brain [4]: 0.06 %ID/g
Ex vivo biodistribution, Fat [4]: 0.04 %ID/g and 0.41 %ID/g and 0.31 %ID/g
Ex vivo biodistribution, Heart [4]: 0.06 %ID/g and 0.76 %ID/g and 0.51 %ID/g
Ex vivo biodistribution, Kidney [4]: 0.24 %ID/g and 2.32 %ID/g and 2.51 %ID/g
Ex vivo biodistribution, Large intestine [4]: 3.24 %ID/g and 45.68 %ID/g and 25.75 %ID/g
Ex vivo biodistribution, Liver [4]: 0.62 %ID/g and 5.66 %ID/g and 7.42 %ID/g
Ex vivo biodistribution, Lung [4]: 0.35 %ID/g and 4.77 %ID/g and 2.50 %ID/g
Ex vivo biodistribution, Muscle [4]: 0.10 %ID/g and 1.36 %ID/g and 0.74 %ID/g
Ex vivo biodistribution, Pancreas [4]: 0.31 %ID/g and 3.02 %ID/g and 2.76 %ID/g
Ex vivo biodistribution, Small intestine [4]: 0.56 %ID/g and 11.02 %ID/g and 5.09 %ID/g
Ex vivo biodistribution, Spleen [4]: 0.19 %ID/g and 1.85 %ID/g (2×)
Ex vivo biodistribution, Stomach [4]: 0.53 %ID/g and 6.53 %ID/g and 4.49 %ID/g
Ex vivo biodistribution, Tumour [4]: 0.11 %ID/g and 1.20 %ID/g and 1.12 %ID/g
Ex vivo biodistribution, Liver [5]: 12.22 %ID/g and 8.90 %ID/g and 10.25 %ID/g and 12.44 %ID/g and 11.01 %ID/g and 11.46 %ID/g
Ex vivo biodistribution, Lung [5]: 8.24 %ID/g
Ex vivo biodistribution, Spleen [5]: 32.75 %ID/g and 20.87 %ID/g and 15.30 %ID/g and 23.45 %ID/g and 16.14 %ID/g and 14.89 %ID/g
Ex vivo biodistribution, Stomach [5]: 4.66 %ID/g and 5.94 %ID/g and 7.68 %ID/g and 11.59 %ID/g and 5.59 %ID/g and 7.44 %ID/g
